According to the supplement of paper PMC11417369:
Some of the results follow.

Test system: PfAP2-HC AP2 domain (GST-tagged)
Test: gcPBM binding intensity (ln(normalized median fluorescence intensity)); higher = stronger DNA binding
Procedure, shortened: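 DNA-binding domains from P. falciparum, fused to GST and produced in E. coli, were put on an Agilent 4 × 180k double-stranded probe array for 1 h in 1× PBS holding 1% milk, 0.2 mg/ml BSA, 0.5% salmon testes DNA and 0.03% Triton X-100. Probes were primer-extended, 36 bp long and drawn from intergenic genomic regions, with negative controls included. After Alexa488 anti-GST antibody detection and a 488 nm scan, binding intensity was set as the highest Masliner-normalised natural-log median intensity across replicate spots of either probe orientation.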

Sequence | gcPBM binding intensity (ln)
TATGTGGCACAAAAGGGTACATATAATTTATACAGG [XGTACX_site5499] | 9.71
CATCATAGCATTCCTCGTACAAATATAAACATATCA [XGTACX_site2711] | 9.53
CATATACACGAACACACACACATATATATATATATA [CACACA_site4437] | 10.5
TAGTAAATAACAAAAGGAAAAATTAATGAGGCAAAA [TGCATGCA_negctrl_site526] | 9.78
ATGTTTTGTAAAATGATTAAATATTAAGATTCAATA [CACACA_negctrl_site1743] | 9.44
CTTAGAGTATTTAAATGTACACGTTTGTATATGTAT [XGTACX_site1767] | 9.73
TAATGAGGAAAAAGTGTGTTAAGATTTTATAATTTA [GTGCAC_negctrl_site608] | 9.55
TAAAAAAAAATAAATACATGCATATAATACATTATA [TGCATGCA_site518] | 9.62
TATCATATAAATACATGTACATATTTGGAAAATAAT [XGTACX_site5373] | 9.64
ATATATATATTAACAATACACACGTGTATACCTTAT [CACACA_site2217] | 9.83
TGAACATGTTAAAATAAACACACAGCTAAGGTTTTT [CACACA_site7934] | 9.8
TCAGTTAATGTATATGTACACACGGGGTGTATATAT [CACACA_site9103] | 9.81
ATATATATATTAAGGGGTACGTAAAAAATTGGGAAG [XGTACX_site7322] | 9.77
AAATTATATCCCCTTTGTACTTACAGATCTTTATAC [XGTACX_site8163] | 9.78
ATAAATAAATACATATGTACATATATATATATATAT [XGTACX_site7145] | 10.1
ATAAAATACAGATAAACACACATATAAACACCCATA [CACACA_site5381] | 10.4
CTTTATTTTTTATACACACACAATATGTATAAATAT [CACACA_site7638] | 9.97
TACATATTTTTTATGTGTACATATTTTTTATGTGTG [XGTACX_site444] | 9.89
TTCTTTTTTCTTTATGGTACGTGTAATATATATCAA [XGTACX_site7960] | 9.76
CCCAATAATTAAACAACACACATATATATATGTAAT [CACACA_site3084] | 9.79
AATGTGAAATATAAATGTACATAAATATATATATAT [XGTACX_site8710] | 9.98
AAAATATAAATATATTGTACTGTTATATAATAAAAT [XGTACX_site2132] | 9.62

Sequence | gcPBM binding intensity (ln)
TAACTATCATGTATTACACACAATATTTATTATAGA [CACACA_site7301] | 9.68
TTTATAAAATTATTTGCATGTAACAATTATAAATTG [TGCATGCA_site1026] | 9.42
TTTTTTTTTCTTTCTCTTTAAATATTAATTAAAAAA [GTGCAC_negctrl_site90] | 9.18
TATAAATATATTTATACACACATTAGTGTATACATG [CACACA_site7397] | 9.88
AGGTGAAAAATATATAATAATGTAACAAAAAAAAAT [XGTACX_negctrl_site394] | 9.76
AACTATAACTAAAAAAATCACATAAAATATTTTATT [TGCATGCA_negctrl_site363] | 9.46
TCGTGTTAAATTTTTACACACAAACTTGCAATAATT [CACACA_site3824] | 9.85
TGTTCTATTCTATTATTATTTACAAATTATAAATAA [GTGCAC_negctrl_site232] | 9.38
TATATATATTAGTGTGCACACTTTTTATTTTTATCC [CACACA_site8506] | 10.6
ATATATTTATAATAGGTGCATATGTTTTATTTTTCC [GTGCAC_site9849] | 9.7
AGATATGTTTTTAATTGTACATAAATACACAAATAT [XGTACX_site5981] | 9.52
TGTAATAAATAGTACACACACACATATATATATATT [CACACA_site1388] | 10.5
AAAAAAAAAAAAAAAAAAAAAATACATATATATATA [CACACA_negctrl_site290] | 9.22
ATATGTGTGTGTATTTGTACCCAATTTTTATATATA [XGTACX_site4948] | 10.3
AAAGAATTATATAAGGTGCACGAATGTTTCTTTAAT | 9.78
ATATTTTTTTTTGTTAGTACTCATATTTGTAGTTTT [XGTACX_site7280] | 9.8
CATTTAAGACAAATTACACACGTATGCCAAATATAT [CACACA_site431] | 9.79
TTTTTAATTTCAATGGTGCAGTAATAATATAATAGT | 9.5
AATATATATAATTATAGTACAGAAAATTAAAAAAGA [XGTACX_site2943] | 9.84
TCTTTAAATTTCTCAACACACAGTTATAAAAAATAA [CACACA_site2856] | 9.37
AACAATAAAAATAATTGTACAAGTTTAAAAAAAATT [XGTACX_site1987] | 9.65
TATATCTTATTTAACACACACAAAGAAAATAGAAAA [CACACA_site3732] | 10.1
